PubChem BioAssay AID1508623 (National Center for Advancing Translational Sciences (NCATS), 2021)
The whole screen tested about 48,000 compounds, of which about 450 (0.94%) were called active. Another 19% or so got no clear call; they are omitted. Calls come from the whole dose curve; as a rule, active = well fitted inhibition curve with a large enough effect; inconclusive = small, poorly fitted or top-dose-only effect; inactive = no such curve, though single readings can be large or run the other way. The list shows a part of the results.

experiment: Primary qHTS for Identification of Small Molecule Inhibitors of Huntingtin Promoter Activity; details: HEK293 HTT promoter firefly luciferase reporter (activity 0% = vehicle and -100% = no light), 24 h; series mostly up to 57.5 µM; activity change, negative = inhibition: at the top concentration; note: nearly all actives have a fitted effect of over 50% in size
How it was run: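 Quantitative HTS used concentration series of up to 57.5 uM final on HEK293 luciferase reporter cells, 24 h at 37 degrees C. Readout was Dual-Glo firefly luminescence.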
Potency is the fitted concentration of half-maximal effect.

SMILES | activity change, negative = inhibition | Potency
CCc1ccccc1NC(=O)c1ccc(F)c(S(=O)(=O)NC2CCCCCC2)c1 | inactive: -37.6% | –
Cc1ccc(NC(=O)CSc2nc3ccccc3c3nc(CCn4cncc4C)nn23)cc1F | inactive: -29.1% | –
CN1CCN(C(c2ccccc2Cl)c2sc3nc(-c4ccco4)nn3c2O)CC1 (stereo not drawn) | inactive: -3.58% | –
CCC(=O)N1CCc2cc(Br)cc(S(=O)(=O)N3CCN(c4ccc(C(C)=O)cc4)CC3)c21 | inactive: -2.54% | –
O=C(Cn1c(=O)n(Cc2ccco2)c(=O)c2ccc(C(=O)NC3CCCC3)cc21)Nc1ccc(F)cc1 | inactive: -3.44% | –
COc1ccc(-n2nc(C(=O)NCCc3ccc(Cl)cc3)c3c4ccccc4n(C)c3c2=O)cc1Cl | inactive: 6.45% | –
Cc1cc(C)n(CC(=O)Nc2ccc(F)c(F)c2)c(=O)c1C#N | inactive: 0.96% | –
CC(C)C[C@@H](N)[C@H](O)C(=O)N[C@H](C(=O)N[C@H](C(=O)N[C@@H](CC(=O)O)C(=O)O)C(C)C)C(C)C | inactive: -22.4% | –
COc1ccc(CCNC(=O)c2c(O)nc3cc(C)ccn3c2=O)cc1OC | inactive: -4.45% | –
O=C(Cn1nc2c(cc1=O)CCCC2)Nc1ccc(F)cc1F | inactive: 3.86% | –
COc1ccc(N2CCN(C(=O)Cc3coc4ccc(C)cc34)CC2)cc1 | inactive: 20.8% | –
COc1ccc(C)cc1NC(=O)C(=O)NCCc1sc(-c2ccc(Cl)cc2)nc1C | inactive: -8.28% | –
CC(=O)c1cccc(NC(=O)CCS(=O)(=O)c2cc3c(cc2C)NC(=O)CO3)c1 | inactive: -4.79% | –
CCc1noc(-c2ccc(NC(C)c3ccccc3)c([N+](=O)[O-])c2)n1 (stereo not drawn) | inactive: -18.7% | –
CCN(CC)C(=O)C1=C(C)Nc2nc3ccccc3n2C1c1ccc(Br)cc1 (stereo not drawn) | inactive: -1.13% | –
CCOC(=O)c1c(NC(C)=O)c2c3c(sc2n1Cc1nc(-c2ccc(Cl)cc2)oc1C)CCCC3 | inactive: -13.4% | –
CCOc1ccccc1C1N=C(N)Nc2nc3ccccc3n21 (stereo not drawn) | inactive: -15.8% | –
Cc1nc(N2CCCC2)c2c(C(=O)Nc3ccc(C)c(Cl)c3)c(C)oc2n1 | inactive: 0.0454% | –
CCC(CC)C(=O)Nc1cc(-c2cn3cccnc3n2)ccc1OC | inactive: -14.6% | –
Cc1ccccc1-c1nnc(CN2CCN(c3cc(Cl)ccc3C)CC2)o1 | inactive: -16.4% | –
COc1ccc(C(CC(=O)Nc2ccc(C)cn2)N2Cc3ccccc3C2=O)cc1OC (stereo not drawn) | inactive: -15.3% | –

SMILES | activity change, negative = inhibition | Potency
CCOC(=O)N1CCC(NC(=O)c2ccc3c(c2)N(Cc2cccc(C)c2)C(=O)c2ccccc2S3(=O)=O)CC1 | inactive: -34.1% | –
COc1cccc(CNC(=O)c2nnn(CC(=O)Nc3cc(Cl)ccc3C)c2N)c1 | inactive: -17.1% | –
O=S(=O)(c1ccc(F)cc1)N1CCC(Oc2ccc(-n3cnnn3)cc2)CC1 | inactive: -3.19% | –
COc1cccc(CNC(=O)Cn2c(=O)oc3cc(S(=O)(=O)N4CCCC4)ccc32)c1 | inactive: -19.4% | –
CCC(=O)N1CCc2cc(Br)cc(S(=O)(=O)CCC(=O)Nc3cccc(CC)c3)c21 | inactive: -5.13% | –
CCn1cc(C(=O)N2CCN(c3cc(Cl)ccc3C)CC2)c2cc(OC)c(OC)cc2c1=O | inactive: -6.4% | –
CC(NC(=O)C1(c2cccs2)CCOCC1)c1ccccc1 (stereo not drawn) | inactive: -7.77% | –
Cc1ccc(CN2CCSc3ccc(C(=O)Nc4ccc(Cl)cc4)cc32)cc1 | inactive: 19.3% | –
CCOc1ccc(CCNC(=O)CCCc2cc(-c3ccc(OCC)cc3)on2)cc1 | – | active: 316 nM
O=C(Cc1csc2ccccc12)NCc1cccc(Br)c1 | inactive: 11.2% | –
Cc1ccc2nc(/C(C#N)=C/c3cccc(Br)c3)[nH]c2c1 | inactive: -3.86% | –
CN(C)S(=O)(=O)n1cc(/C=C(\NC(=O)c2ccccc2F)C(=O)NCCCn2ccnc2)c2ccccc21 | inactive: 1.28% | –
Cc1ccccc1CN1CCC(CNc2ncnc3onc(-c4ccc(Cl)cc4)c23)CC1 | inactive: -0.183% | –
OC(c1cc(C(F)(F)F)nc2c(C(F)(F)F)cccc12)C1CCCCN1 (stereo not drawn) | inactive: -19% | –
Cc1ccc(NC(=O)C2CCCN(c3ncnc4c3nc3n4CCCCC3)C2)cc1F (stereo not drawn) | inactive: -47.2% | –
CCOc1ccc(NC(=O)c2c(NC(=O)c3ccco3)sc3c2CCC(C(C)(C)C)C3)cc1 (stereo not drawn) | inactive: -3.96% | –
O=C(O)CC(NS(=O)(=O)c1ccc(Cl)s1)c1ccccc1 (stereo not drawn) | inactive: -5.33% | –
COc1cc(NS(=O)(=O)c2ccc(NC(=O)C(C)Oc3ccc(Cl)cc3Cl)cc2)nc(OC)n1 (stereo not drawn) | inactive: -21.8% | –
O=C(Nc1cccc(C(F)(F)F)c1)C1CCN(c2nnc(-n3cccc3)s2)CC1 | inactive: -4.66% | –
COc1ccc(Nc2c(-c3ccc(Cl)cc3)nc3cnccn23)cc1OC | inactive: -14.3% | –
CCC12CN3CC(C)(CN(C1)C3c1ccc(O)cc1O)C2=O (stereo not drawn) | inactive: -15.4% | –

SMILES | activity change, negative = inhibition | Potency
Cc1cc(C)cc(Oc2coc3c(CN4CCN(C)CC4)c(O)ccc3c2=O)c1 | inactive: -5.53% | –
COc1cccc(C(=O)Nc2cc(-c3cn4cccnc4n3)ccc2C)c1OC | inactive: 4.07% | –
Cc1ccc(OCC(=O)Nc2ccccc2C(=O)OCc2cc(=O)n3nc(C4CC4)sc3n2)cc1 | inactive: -11.1% | –
Cc1nc2ccccn2c(=O)c1NC(=O)c1c(F)cccc1F | inactive: 1.9% | –
CC1CCN(C(=O)c2c(NC(=O)c3ccccc3F)sc3c2CCC(C(C)(C)C)C3)CC1 (stereo not drawn) | inactive: -11.4% | –
CCn1cc(S(=O)(=O)c2ccc(OC)cc2)c(=O)c2cc(F)c(N3CCC(C)CC3)cc21 | inactive: 7.76% | –
CNCCCC12CCC(c3ccccc31)c1ccccc12 | inactive | –
CCCN(CCC)CCCNC(=O)C1CCC(CNS(=O)(=O)c2cccc3nsnc23)CC1 (stereo not drawn) | inactive: 2.83% | –
CCCCNS(=O)(=O)c1ccc2nc(-c3cccnc3)cc(C(=O)NCCC)c2c1 | inactive: -19.6% | –
CC(=CC(=O)Nc1ccccc1C(=O)O)c1ccc2ccccc2c1 | inactive: 8.78% | –
COCCNC(=O)CSc1c2c(nc3cc(Cl)ccc13)CCCC2 | inactive: -0.812% | –
NCCNc1cccc2ccccc12 | inactive: -12.4% | –
NCCCCCc1nnc(SCc2ccc(F)cc2)o1 | inactive: -29.8% | –
COCCCNC(=O)c1ccc2nc(Cc3ccc(OC)cc3)oc2c1 | inactive: -15.1% | –
CCCCSc1nnc2n(-c3cccc(C)c3)c(=O)c3c4c(sc3n12)CCCC4 | inactive: -19.2% | –
COc1ccc(NC(=O)COCc2cc(-c3ccco3)on2)cc1 | inactive: -11.8% | –
Fc1ccccc1Oc1ncnc2c1oc1ccccc12 | inactive: 14.8% | –
Clc1ccc(-c2csc(=Nc3ccccc3)n2Cc2ccc3c(c2)OCO3)cc1 | inactive: -11.6% | –
CCOC(=O)C1CCN(C(=O)CSc2n[nH]c(-c3ccccc3)n2)CC1 | inactive: 0.615% | –
Cc1cccc(OCc2nc(C#N)c(NCc3ccccc3Cl)o2)c1 | inactive: 7.92% | –
Cc1ccc2nc(COc3ccc(NC(=O)COc4ccccc4F)cc3)cc(=O)n2c1 | inactive: 3.46% | –
